Measurements as given in PubChem BioAssay AID493208 (National Center for Advancing Translational Sciences (NCATS), 2011).
In all, about 44,000 compounds went through this assay and about 340 (0.77%) were called active. About 5% were inconclusive and are not listed. Calls come from the whole dose curve; as a rule, active = well fitted inhibition curve with a large enough effect; inconclusive = small, poorly fitted or top-dose-only effect; inactive = flat fitted curve, though single readings scatter. The list shows a part of the results.

Assay: Acumen qHTS Assay for Inhibitors of the mTORC1 Signaling Pathway in MEF (Tsc2-/-, p53-/-) Cells: Sytravon; note: nearly all actives have a fitted effect of over 50% in size;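 for activity change, negative = inhibition: plate controls were DMSO for no effect and rapamycin for full effect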
Conditions: phospho-rpS6 immunofluorescence/PI, 24 h; series mostly up to 38.3 µM; activity change, negative = inhibition: at the top concentration
Procedure, shortened: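 Tsc2-/-, p53-/- MEFs (empty-vector stable line) in DMEM + 10% FBS were treated with compounds 24 h at 37 degree Celsius, fixed, and immunostained for phospho-rpS6 (Alexa-488) with propidium iodide counterstain. Laser-scanning cytometry gave % positive cells, normalized against 7.5 nM rapamycin and DMSO.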
Potency is the fitted concentration of half-maximal effect.

SMILES	activity change, negative = inhibition	Potency
CC(C)CN(CCNC(=O)c1cc(-c2ccc(Cl)s2)nc2ccccc12)CC(C)C	inactive: -2.08%	–
COc1cccc(CNC(=O)Cn2c(C)c3cnn(-c4ccccc4)c(=O)c3c2C)c1	inactive: -5.98%	–
CC(C)(C)C(=O)Cn1c(=O)n(-c2ccc(Cl)c(Cl)c2)c(=O)c2c3c(sc21)CCCC3	inactive: -4.34%	–
COCc1cc(C)nc2sc(C(=O)Nc3cc(C)ccc3F)c(N)c12	inactive: 10.7%	–
Cc1cc(C)cc(N2CCn3c2nc2c3c(=O)n(CCCc3ccccc3)c(=O)n2C)c1	inactive: -6.76%	–
CN(C(=O)CSc1nnc(-c2ccc([N+](=O)[O-])cc2)o1)c1ccccc1	inactive: 3.94%	–
Cc1ccc(CNC(=O)CCCn2c(=O)c3ccccc3n(Cc3ccc(Cl)cc3)c2=O)cc1	inactive: -12.9%	–
COc1ccc(CCNC(=O)Cn2cc(C(=O)c3ccc(F)cc3)c(=O)c3ccc(C)nc32)cc1OC	inactive: -15.8%	–
Cc1ccc(CNC(=O)CCC(=O)N2CCSc3ccccc32)cc1	inactive: -2.65%	–
Cc1ccc(-c2nc3cc(C(C)C)ccc3o2)cc1NC(=O)c1cc([N+](=O)[O-])ccc1N1CCOCC1	inactive: -8.38%	–
COCCCNC(=O)C1CCCN(c2nn3cc(-c4ccc(C)cc4)nc3s2)C1 (centres undefined)	inactive: 2.28%	–
Cc1cccc(-c2nc3ccccc3n3c(-c4ccccc4)c4c(=O)n(C)c(=O)n(C)c4c23)c1	inactive: 4.42%	–
O=C(Nc1ccc(F)c(Cl)c1)N1CCC(CN2CCc3ccccc3C2)CC1	inactive: -15.4%	–
CCC(C)NC(=O)CCc1c(C)nc2cc(-c3ccc(OC)cc3OC)nn2c1C (centres undefined)	inactive: -2.51%	–
Cc1cccc(CCNC(=O)C2CCN(c3nc4ccccc4nc3C(F)(F)F)CC2)c1	inactive: 4.9%	–
Cc1ccc(-n2ncc3c(NCC(C)C)ncnc32)c(C)c1	inactive: -12.1%	–
COc1ccccc1-c1cc2nc(C)c(CCC(=O)Nc3cc(C)ccc3C)c(C)n2n1	inactive: -6.47%	–
CCc1ccc(NC(=O)Cn2cnc3sc(C)c(S(=O)(=O)N4CCN(c5ccccc5OC)CC4)c3c2=O)cc1	inactive: 0%	–
Cc1oc(-c2ccccc2F)nc1CSc1nnc(C)n2c1cc1occc12	inactive: -12.8%	–
CC(C)(C)OC(=O)N1CCC(c2c(C(=O)N3CCOCC3)cnn2-c2cccc(F)c2)CC1	inactive: 0.931%	–
Cc1ccc(C)c(NC(=O)Nc2cccc(-c3cn4cccnc4n3)c2)c1	inactive: 10.5%	–
COc1ccc(-n2nnc(-c3nc(-c4cccs4)no3)c2N)cc1	inactive: 1.01%	–
O=C(Nc1ccc(C(=O)N2CCN(c3ccccc3)CC2)cc1)c1nsc2ccccc12	inactive: 11.2%	–
CCOC(=O)c1cnc2ccc(Cl)cc2c1Nc1ccc(N2CCOCC2)cc1	inactive: -0.272%	–

SMILES	activity change, negative = inhibition	Potency
CCCN(CCC)CCNC(=O)C1CCN(c2nc3ccc(CC)cc3s2)CC1	–	active: 16.5 µM
O=C(CSc1nc2c(c(=O)[nH]1)CN(Cc1ccc3c(c1)OCO3)CC2)Nc1ccc(F)c(F)c1	inactive: -1.97%	–
CCOc1ccc(CCNC(=O)c2cc3sc(CC)cc3n2C)cc1OCC	inactive: -6.32%	–
Cc1ccc(S(=O)(=O)N2CCC(n3c(C)nc4cccnc43)CC2)c(C)c1	inactive: -6.17%	–
Cc1ccc(S(=O)(=O)c2cn(Cc3ccc(F)cc3)c3cc(N4CCCC4)c(F)cc3c2=O)cc1	inactive: -1.84%	–
Cc1ccc(CNC(=O)c2ccc(-c3nc(CS(=O)(=O)c4ccc(C)cc4)c(C)o3)cc2)cc1	inactive: 1.64%	–
Cc1[nH]c2ccccc2c1SCCNC(=O)c1ccccc1F	inactive: 2.89%	–
CC(C)Oc1ccc(CNC(=O)Cn2ncn3nc(-c4cccs4)cc3c2=O)cc1	inactive: -0.098%	–
COC(=O)c1ccccc1-n1c(CCC(=O)O)ccc1-c1ccccc1	inactive: -13.9%	–
O=C(NCc1ccccc1Cl)c1cc2cccc3c2n1CCS3	inactive: -10.4%	–
COc1cccc(CNC(=O)c2ccc3c(c2)nc2n3CCC(C)C2)c1OC (centres undefined)	inactive: 1.88%	–
CCOC(=O)C1CCCN(C(=O)c2[nH]c3ccccc3c2Sc2ccc(Cl)cc2)C1 (centres undefined)	inactive: -2.97%	–
COc1ccc(C(=O)NCC(c2ccco2)S(=O)(=O)c2cccs2)cc1OC (centres undefined)	inactive: 1.72%	–
Cc1ccnc(NS(=O)(=O)c2ccc(NC(=O)c3nc(SC(C)C)ncc3Cl)cc2)n1	inactive: 3.11%	–
Cc1cc(C)c2oc(C(=O)Nc3c(C(=O)Nc4ccccc4)oc4ccccc34)cc(=O)c2c1	inactive: -2.89%	–
CCCCn1cc(S(=O)(=O)c2ccc(Cl)cc2)c(=O)c2cc(F)c(N3CCCCC3)cc21	inactive: -8.9%	–
Cn1c(SCc2ccc(F)cc2)nc2ccc(C(=O)NCc3ccccc3)cc21	inactive: -1.16%	–
Cc1nc2ccc(S(=O)(=O)NC(C(=O)NCc3ccc(Cl)cc3)C(C)C)cc2s1 (centres undefined)	inactive: -26.6%	–
COc1cc2c(-c3ccccc3Cl)nc3c(c(C)nn3-c3ccccc3)c2cc1OC	inactive: 6.52%	–
Cc1cccc(C(=O)Nc2ccccc2C(=O)OCc2cc(=O)n3nc(C4CC4)sc3n2)c1	inactive: -0.0585%	–
CCOC(=O)c1c(-c2ccc(OC)c(OC)c2)csc1NC(=O)c1ccc(F)cc1	inactive: 4.37%	–
O=C(C1CCN(c2nc3ccccc3[nH]2)CC1)N1CCN(c2cccc(Cl)c2)CC1	inactive: -10.2%	–
COc1cccc(N2C(=O)CSC23C(=O)N(CC(=O)NCc2ccc(C)cc2)c2ccccc23)c1 (centres undefined)	inactive: 4.17%	–
CSC1=NC2(CCN(C(=O)NC3CCCCC3)CC2)N=C1c1ccc(C(C)(C)C)cc1	inactive: -14.6%	–

SMILES	activity change, negative = inhibition	Potency
CCc1ccc2occ(CC(=O)Nc3sc4c(c3C(=O)OC)CCC4)c2c1	inactive: 0%	–
COc1cccc(CNCCSc2nnnn2C)c1OCc1ccc(Cl)cc1	inactive: -0.895%	–
CCCN(CCC)CCCNC(=O)c1cn(CC)c2ccc(S(=O)(=O)N3CCc4ccccc4C3)cc2c1=O	inactive: -2.93%	–
CCc1ccc(Cn2nnc(C(=O)Nc3ccc(C)cc3)c2N)cc1	inactive: 0.96%	–
CCOC(=O)c1ccc2c(c1)N(CC(=O)Nc1ccc(CC)cc1)C(=O)c1ccccc1S2	inactive: 1.13%	–
COc1cc(NC(=O)Cn2cnc3sc(C)c(S(=O)(=O)N4CCN(C)CC4)c3c2=O)cc(OC)c1OC	inactive: -1.36%	–
Cc1ccc(Nc2c(-c3ccc(N4CCOCC4)cc3)nc3ncccn23)cc1C	inactive: 6.52%	–
O=C(CSc1oc(-c2ccco2)nc1S(=O)(=O)c1ccccc1)c1ccc(Cl)cc1	inactive: -3.15%	–
CCOC(=O)c1ccc(NC(=O)CC2C(=O)N(c3ccccc3)C(=O)N2C2CCCCC2)cc1 (centres undefined)	inactive: -0.0576%	–
CCOc1cccc(C(=O)Nc2ccc(NC(=O)c3ccc(Br)cc3)cc2)c1	inactive: -5.13%	–
CCN(c1ccc(C)cc1C)S(=O)(=O)c1nnc(NC(=O)c2ccccc2OC)s1	inactive: 3.59%	–
CCOC(=O)c1oc2ccc(S(=O)(=O)n3nc(-c4cc(OCC)c(OCC)c(OCC)c4)cc3N)cc2c1C	inactive: -1.77%	–
CCc1ccc(N2CCn3c2nc2c3c(=O)n(CCCc3ccccc3)c(=O)n2C)cc1	inactive: 0.577%	–
CCCc1cnc2c(c1SCC(=O)Nc1cccc(C)c1C)c(=O)n(C)c(=O)n2C	inactive: -13%	–
CCOc1ccc(-c2nonc2NC(=O)COc2ccccc2)cc1	inactive: -2.47%	–
CCOC(=O)c1ccc(NC(=O)c2c(NCc3cc(OC)c(OC)cc3OC)sc3c2CCCC3)cc1	inactive: -7.88%	–
COc1ccc(-n2cc(-c3ccccc3)c3c(NCCc4ccc(OC)c(OC)c4)ncnc32)cc1	inactive: 7.19%	–
CCN1CCN(c2cc3c(cc2F)c(=O)c(S(=O)(=O)c2cc(C)cc(C)c2)cn3CC)CC1	inactive: -7.81%	–
O=C(NCCCCc1ccccc1)c1nn(-c2ccccc2)nc1CO	inactive: -1.72%	–
CC1=C(C(=O)OCC2CCCCC2)C(c2cccc(F)c2F)CC(=O)N1 (centres undefined)	inactive: -0.27%	–
COc1ccc(NC(=O)Cn2nnc(C(=O)Nc3ccc(C)c(F)c3)c2N)cc1Cl	inactive: -4.17%	–
COc1ccc(CNC(=O)CN(c2ccc(OC)cc2)S(=O)(=O)c2c(C)[nH]c(=O)[nH]c2=O)cc1	inactive: -17.8%	–
Cc1ccc(-n2c(-c3ccco3)nc3c(cnn3-c3ccc(C)cc3)c2=O)cc1	inactive: 3.6%	–
O=C(Cc1ccccc1F)N1CCC(c2nc3c(nnn3Cc3cccc(Cl)c3)c(=O)[nH]2)CC1	inactive: -3.48%	–

SMILES	activity change, negative = inhibition	Potency
Cc1cc(C)cc(OCCn2c(CCNC(=O)C3CCCCC3)nc3ccccc32)c1	inactive: -1.15%	–
CCOc1ccc(NC(=O)c2c(NC(=O)c3ccccc3Br)sc3c2CCC(C)C3)cc1 (centres undefined)	inactive: 8.71%	–
CCOc1ccc(NC(=O)CC2C(=O)N(c3ccc(C)cc3)C(=O)N2Cc2ccc(OC)cc2)cc1 (centres undefined)	inactive: 2.22%	–
CCC(=O)N1CCc2cc(Br)cc(S(=O)(=O)N(CC)Cc3ccccc3)c21	inactive: -8.38%	–
COc1ccc(OC)c(NC(=O)N(C)CCc2c(C)nn(C)c2C)c1	inactive: 0%	–
CCc1cccc(C)c1NC(=O)c1cn2c3c(ccc(Cl)c3c1=O)OC(C)C2 (centres undefined)	inactive: -4.78%	–
Cc1ccc(-c2nc3ncccc3o2)cc1NC(=O)c1ccc(-c2cccc(Cl)c2C)o1	inactive: 2.03%	–
Cc1nc(-c2cccc(F)c2)sc1CCNC(=O)C(=O)Nc1ccc2c(c1)OCO2	inactive: -3.22%	–
CCOc1ccc(S(=O)(=O)NCC(c2ccc(N(C)C)cc2)N2CCc3ccccc32)cc1 (centres undefined)	inactive: -15.8%	–
CCCCN(C)S(=O)(=O)c1cc(-c2cc(C)no2)ccc1C	inactive: -4.73%	–
COC(=O)CSc1ccc2nnc(CCNS(=O)(=O)c3ccccc3)n2n1	inactive: -3.46%	–
Cc1cc(-c2nc3ncccc3o2)ccc1NC(=O)c1ccc(Cl)cc1	inactive: -0.0773%	–
Cc1cccc(NC(=O)c2c(N)sc3c2CCC(C)C3)c1 (centres undefined)	inactive: -16.1%	–
COc1ccc(-c2cccc(NS(=O)(=O)c3cc(C)ccc3OC)c2)nn1	inactive: 0%	–
O=C(Nc1ccc2nn(-c3ccc(Cl)cc3)nc2c1)c1cc2ccccc2o1	inactive: 1.92%	–
Cc1ccccc1Nc1c(-c2ccc(N3CCOCC3)cc2)nc2ccc(Cl)cn12	inactive: 0.386%	–
Cc1ccccc1NC(=O)c1c(NC(=O)c2cccs2)sc2c1CCC(C)C2 (centres undefined)	inactive: 3.68%	–
COc1ccc(C(=O)NCC(c2ccco2)S(=O)(=O)c2cccs2)cc1 (centres undefined)	inactive: -1.65%	–
N#Cc1nc(/C=C/c2ccc(F)cc2)oc1NC1CCCCC1	inactive: -1.44%	–
COc1ccc(N(C)C(=O)C2CCN(S(=O)(=O)c3cc(Br)cc4c3N(C(C)=O)CC4)CC2)cc1	inactive: 3.67%	–
Cc1ccc(OCc2cc(=O)n3ccsc3n2)c(NC(=O)c2ccco2)c1	inactive: 0.0461%	–
Cn1c(=O)n(C)c2cc(N3CCCCC3)c(NC(=O)c3c(F)cccc3F)cc21	inactive: -3.79%	–
